Assay results from publication PMC4336329 (PLoS ONE, 2015).
Screen size: about 310,000 compounds; about 14,000 (4.5%) showed an effect of 50% or more. The effect is printed as a negative number. This is one part of the list.

These compounds were tested against human ether-à-go-go-related gene (hERG) potassium channel (human, UniProt Q12809) (assay: primary screen, population patch clamp on CHO cells stably expressing hERG).
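Note: peak tail current of the secondary pulse compared with the same well before compound.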

Sequence of human ether-à-go-go-related gene (hERG) potassium channel (Q12809 whole entry, looked up): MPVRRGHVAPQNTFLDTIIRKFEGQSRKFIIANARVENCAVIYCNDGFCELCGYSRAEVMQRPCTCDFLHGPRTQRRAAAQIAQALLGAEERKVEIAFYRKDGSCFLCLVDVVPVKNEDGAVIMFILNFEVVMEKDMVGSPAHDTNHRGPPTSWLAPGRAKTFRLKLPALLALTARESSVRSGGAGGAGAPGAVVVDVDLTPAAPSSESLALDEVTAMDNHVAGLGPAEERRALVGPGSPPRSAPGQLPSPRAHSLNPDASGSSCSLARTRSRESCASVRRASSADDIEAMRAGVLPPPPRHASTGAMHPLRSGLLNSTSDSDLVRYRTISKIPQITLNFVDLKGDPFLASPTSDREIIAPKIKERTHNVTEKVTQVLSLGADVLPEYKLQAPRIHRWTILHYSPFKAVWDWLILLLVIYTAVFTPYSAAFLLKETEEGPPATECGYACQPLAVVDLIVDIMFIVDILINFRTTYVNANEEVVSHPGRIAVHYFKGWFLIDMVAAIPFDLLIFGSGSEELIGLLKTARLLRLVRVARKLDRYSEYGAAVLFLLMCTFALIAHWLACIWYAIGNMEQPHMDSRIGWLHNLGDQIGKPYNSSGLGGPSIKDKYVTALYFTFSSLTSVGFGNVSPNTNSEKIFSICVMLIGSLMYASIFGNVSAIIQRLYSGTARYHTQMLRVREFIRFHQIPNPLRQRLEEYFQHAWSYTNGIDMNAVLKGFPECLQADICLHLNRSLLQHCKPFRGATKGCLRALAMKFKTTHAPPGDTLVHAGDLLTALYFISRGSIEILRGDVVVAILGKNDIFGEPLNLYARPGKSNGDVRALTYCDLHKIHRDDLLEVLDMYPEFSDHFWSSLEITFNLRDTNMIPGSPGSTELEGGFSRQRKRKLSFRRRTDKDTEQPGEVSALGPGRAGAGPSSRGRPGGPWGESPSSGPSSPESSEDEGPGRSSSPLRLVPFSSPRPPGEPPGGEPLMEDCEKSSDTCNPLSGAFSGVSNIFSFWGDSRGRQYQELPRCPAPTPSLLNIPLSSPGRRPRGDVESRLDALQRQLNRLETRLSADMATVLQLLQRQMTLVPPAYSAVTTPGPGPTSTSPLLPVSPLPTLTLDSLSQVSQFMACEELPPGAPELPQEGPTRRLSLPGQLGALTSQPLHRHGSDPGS

SMILES	hERG current change (%, negative = inhibition) at 10uM [%]
CC(C)Cn1c(N)c(C(=O)CSc2nc3ncc(Cl)cc3[nH]2)c(=O)n(C)c1=O	-0.019
CCCC1CCC(c2ccc(C(=O)NN)cc2)CC1 (stereo not drawn)	5.09
Cc1[nH]nc2c1C1(C(=O)N(Cc3ccc(Cl)cc3)c3ccccc31)C(C#N)=C(N)O2 (stereo not drawn)	-25.9
CC1CCC(C(C)C)C(=O)/C1=C/c1ccc(N)cc1 (stereo not drawn)	-17
CC1=[N+]([O-])C(C)(C)N(O)C1(C)C	18.1
COc1ccccc1NS(=O)(=O)c1cccc(NC(=O)Nc2ccccc2)c1	13.7
Cc1ccc(-n2c(O)c(C=NCC3CCCO3)c(=O)[nH]c2=O)c(C)c1 (stereo not drawn)	20.8
O=C(O)C1CCCN1C(=O)c1cccs1 (stereo not drawn)	10.1
O=C(Nc1ccc(N=Nc2ccccc2)c(NC(=O)C2CCCO2)c1)C1CCCO1 (stereo not drawn)	-22.9
CCS(=O)(=O)Nc1cccc(C(=O)O)c1	-0.622
COc1ccc(/C=C/C(=O)Nc2cc(C(F)(F)F)ccc2Cl)cc1OC	11
Cc1cccc(NC(=O)NNS(=O)(=O)c2ccc(F)cc2)c1	-1.81
O=C(O)c1cc(N/N=C/c2ccc(-c3ccccc3)cc2)ccc1Cl	16.7
O=C(CCC(=O)NNC(=O)c1ccccc1[N+](=O)[O-])NCc1ccccc1	10.9
COc1ccc(S(=O)(=O)NCc2ccccn2)cc1OC	14
CN(CCNS(=O)(=O)c1ccc2c(c1)oc(=O)n2C)Cc1ccccc1	-18.1
COCCCNC(=O)Cn1c(=O)n(CCCCCC(=O)Nc2ccccc2)c(=O)c2sccc21	-0.555
N#CCCN(Cc1ccccc1)C(=S)Nc1ccccc1	-14.3
CCOc1ccc(NC(=O)[C@@H]2CCCN2C(=O)c2cccs2)cc1S(=O)(=O)N1CCOCC1	6.27
Cc1ccc(OCC(=O)NC2CCCC2)c(C)c1	2.93
COc1ccc(OCc2cc(C(=O)N(C)C(C)c3ccon3)no2)c(Cl)c1 (stereo not drawn)	-7.91
Cn1c2c(c(=O)n(C)c1=O)CN(Cc1ccco1)CN2	4.7

SMILES	hERG current change (%, negative = inhibition) at 10uM [%]
CN(NC(=O)c1ccccc1Cl)c1ncc(C(F)(F)F)cc1Cl	-1.95
CCC(C)C(=O)OCC1(c2ccc(C)cc2OC(=O)C(C)C)CO1 (stereo not drawn)	5.95
Cc1cc2ncn(S(=O)(=O)c3ccc(F)cc3)c2cc1C	9.64
CC(=O)Nc1cccc(NC(=O)Nc2ccc(C(C)=O)cc2)c1	12.4
COc1cc(OC)cc(C(=O)NCC(=O)OCC(=O)Nc2cc(S(C)(=O)=O)ccc2Cl)c1	10.7
Cc1ccc(Cn2c(=N)c(S(=O)(=O)c3ccc(C)cc3)cc3c(=O)n4ccccc4nc32)cc1	17.7
CCOC(=O)c1cccc(NC(=O)Cn2nc(C)n3cccc3c2=O)c1	-1.5
COc1cc(C(=S)N2CCN(c3cccc(Cl)c3)CC2)ccc1O	9.46
COC(=O)C1C(=O)C2=C(CC1C)NC(C)=C(C(=O)OC1CCCCC1)C2c1ccc(N(C)C)cc1 (stereo not drawn)	8.41
COC(=O)c1c(C(=O)OC)c(-c2ccc(C)cc2)n2c1CS(=O)C2 (stereo not drawn)	-53.8
CCOC(=O)CC1C(=O)NCCN1S(=O)(=O)c1ccccc1Cl (stereo not drawn)	-7.16
Cc1ccc2nc(Cl)c(-c3ccccc3)cc2c1	-3.06
CCN(CC(=O)NC(C)C)C(=O)[C@H](C)NC(=O)c1ccc(Br)cc1	-2.35
N/C(Cc1cccc2ccccc12)=N\OC(=O)Cc1cccs1	-9.85
Cc1cc(Nc2cccc([N+](=O)[O-])c2)n2c(nc3ccccc32)c1C#N	10.9
CCN(CC)S(=O)(=O)c1ccc(/C=C/C(=O)Nc2ccccc2N2CCOCC2)cc1	3.87
O=C(CN1C(=O)C2C3CCC(C3)C2C1=O)Oc1ccc2ccccc2c1 (stereo not drawn)	33.3
CCOc1ccc(CCNC(=O)c2cccc(-n3cnnn3)c2)cc1OCC	-26.8
CCCSc1ccc([C@H]2N[C@@](C)(C(=O)OC)[C@H]3C(=O)N(C)C(=O)[C@@H]23)cc1.O=C(O)C(F)(F)F	4.39
CC(C)C(NC(=O)c1ccc2c(c1)OCO2)C(=O)N/N=C\c1ccco1 (stereo not drawn)	2.3
Cc1ccccc1COc1ccc(/C=C(\C#N)C(N)=O)cc1	21.2
O=S(=O)(NCc1ccccc1)c1ccc(S(=O)(=O)NCC2CCCO2)cc1 (stereo not drawn)	13.5

SMILES	hERG current change (%, negative = inhibition) at 10uM [%]
COc1ccc(NC(=O)/C(C#N)=C\c2cc(C)n(-c3ccc(Oc4ccc([N+](=O)[O-])cn4)cc3)c2C)cc1	10.8
O=C(Nc1ccc(F)cc1)C(Cc1ccccc1)n1cccc1 (stereo not drawn)	-9.4
C#CCN(C(=O)c1ccc(OC2CCN(C(=O)CCOC)CC2)cc1)C1CCCCC1	17.9
Cn1cc(C2N3CC4(C)CN2CC(C)(C3)C4=O)c2ccccc21 (stereo not drawn)	19.8
Cc1ccccc1-c1noc(C2CCCCC2)n1	7.77
COCCn1c(C)cc(C(=O)COC(=O)c2ccc([N+](=O)[O-])o2)c1C	-26.7
COC(=O)c1ccc(NC(=S)NCCCN2CCCC2=O)cc1	3.58
N#CC1(Nc2ccccc2)C(=O)Nc2ccccc21 (stereo not drawn)	-2.17
O=C(NCc1ccccc1)OCCN1CCN(Cc2ccccc2)CCC1=O	0.631
O=C(NCCc1ccc(Cl)cc1)c1cc(-c2ccccn2)nc2ccccc12	20.3
Cc1noc(C)c1COc1ccc(C(=O)OCC(=O)Nc2cccc(S(=O)(=O)N3CCOCC3)c2)cc1	2.47
O=C(COC(=O)c1ccccc1F)c1ccc(-n2nncc2-c2ccco2)cc1	12.9
COc1ccc(S(=O)(=O)NCCN2CCOCC2)cc1Br	17.8
Cc1cccc(NC(=O)CSc2nnc(C3CC3)n2CC2CCCO2)c1C (stereo not drawn)	6.09
Fc1cccc(-n2c(-c3ccco3)nc3nc4ccccc4nc32)c1	7
CCOC(=O)C1=C(c2ccccc2)Nc2ncnn2C1c1ccc(O)cc1 (stereo not drawn)	-2.1
CC(=C/c1ccccc1)/C=N/NC(=O)c1ccc2nc[nH]c2c1	-3.63
O=C(NNC(=O)c1c(O)c2ccccc2[nH]c1=O)c1ccccc1	16.6
COc1ccc(Cn2ccc(=O)c(Cc3c(Cl)cccc3Cl)c2C)cc1	-16.1
O=C(c1ccc(F)cc1)N1CCCCC(S(=O)(=O)c2ccccc2)C1=O (stereo not drawn)	4.45
CCOC(=O)N1CCC(Nc2c(-c3ccc(C)cc3)c(=O)c2=O)CC1	-46.7
S=C1NCN(C2CCCCC2)CN1CCc1ccccc1	7.31

SMILES	hERG current change (%, negative = inhibition) at 10uM [%]
Cc1nn(Cc2cccc(C(N)=O)c2)c(C)c1Br	-5
Cc1ccc([C@@H]2[C@@H]3C(=O)N(C)C(=O)[C@@H]3[C@]3(C)C(=O)N(Cc4ccccc4)CC(=O)N23)o1	3.95
O=C(NC(O)C(=O)c1cccs1)c1cccnc1 (stereo not drawn)	6.82
O=C(Nc1nnc(C2CC2)s1)c1cc([N+](=O)[O-])ccc1N1CCCCC1	-26.1
Nc1c(/C=C2/C=CC(=O)C(O)=C2)c(=O)nc2sc(CC(=O)N3CCCCC3)nn12	8.38
CO/N=C(/CS(=O)(=O)Cc1ccccc1Cl)c1ccc(Cl)cc1Cl	4.75
Cc1nn(CC(=O)NCc2ccc(OC(C)C)cc2)c(=O)c2cc3occc3n12	4.68
Cc1ccccc1-c1nc(CS(=O)(=O)CC(=O)NCCN2CCOCC2)c(C)o1	-1.17
CCOC(=O)c1ccc(-n2c(CN3CCOCC3)nc3ccc([N+](=O)[O-])cc3c2=O)cc1	1.65
O=C(Nc1ccc2ccccc2c1)Nc1ccc2snnc2c1	8.76
O=C(O)/C=C\C(=O)Nc1ccc(Oc2ccc(Br)cc2)cc1	11.4
Cc1noc(C(=O)NC2CCCCC2)c1Cl	2.01
COc1ccc(OCCC(=O)OCC(=O)NCc2ccco2)cc1	4.99
C=CCn1c(=O)c(C(=O)Nc2cc(C)ccn2)c(O)c2ccccc21	21.3
CC(c1n[nH]c(=S)n1-c1ccc(F)cc1)N1CCCCC1 (stereo not drawn)	15.2
COc1ccc(CNc2nc3ccccc3n2C(C)C)cc1	-18.7
CC1=C(C)C(OCCBr)N(c2cc(O)c(Cl)cc2F)C1=O (stereo not drawn)	4.66
CN(C)S(=O)(=O)c1ccc(C(=O)NNC(=O)C2COc3ccccc3O2)cc1 (stereo not drawn)	-6.84
CCn1c(=O)c(C(=O)Nc2ccccc2C)c(O)c2ccccc21	3.53
NC(=O)c1ccc(/C=N/O)[n+](Cc2ccccc2)c1.[Br-]	9.69
O=C(COC(=O)C1=COCCO1)NC1CCCCC1	11.5
